From the supplement of paper PMC4967469
Lines with a small IC50 respond at low doses; a limit (>, <) means that the fit lies beyond the doses tested. AUC sums up the same curve from the lowest dose to the 256-fold higher top dose; values near 1 show little effect. For part of these data: The top dose, if marked as inferred, was calculated from the reported fits. For part of these data: An entry number marks a drug with two screens in the source, which often give different values.

What was measured:
Experiment in all cases: Viability of human cancer cell lines after 72 h of drug (GDSC screen)
PF-562271 = compound: CN(c1ncccc1CNc1nc(Nc2ccc3c(c2)CC(=O)N3)ncc1C(F)(F)F)S(C)(=O)=O [PF-562271]; conditions: top dose 2.56 µM; top dose inferred
Experimental: (§1)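 Human cancer cell lines in 384-well plates, medium with 10% serum, drug for 72 h over a 256-fold dose range (nine 2-fold or five 4-fold steps up to the top dose). Adherent lines were fixed and stained with the nucleic acid dye Syto60, suspension lines read with resazurin; signal relative to control wells, capped at 0 and 100%. One two-parameter sigmoid per drug and line, fitted in a mixed model over all curves with the slope shared within a line.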

Afatinib = compound: CN(C)C/C=C/C(=O)Nc1cc2c(Nc3ccc(F)c(Cl)c3)ncnc2cc1O[C@H]1CCOC1 [Afatinib]
Experimental: as §1

Vinblastine = compound: CC[C@]1(O)C[C@@H]2CN(CCc3c([nH]c4ccccc34)[C@@](C(=O)OC)(c3cc4c(cc3OC)N(C)[C@H]3[C@@](O)(C(=O)OC)[C@H](OC(C)=O)[C@]5(CC)C=CCN6CC[C@]43[C@@H]65)C2)C1 [Vinblastine]; conditions: top dose 0.1 µM; top dose inferred
Experimental: as §1

SNX-2112 = compound: CC1(C)CC(=O)c2c(C(F)(F)F)nn(-c3ccc(C(N)=O)c(N[C@H]4CC[C@H](O)CC4)c3)c2C1 [SNX-2112]; conditions: top dose 2.56 µM
Experimental: as §1

XMD13-2 = compound: O=C(NC1CC1)c1cccc(-c2ccc3c(NC(=O)C4CC4)n[nH]c3c2)c1 [XMD13-2]; conditions: top dose 10.24 µM; top dose inferred
Experimental: as §1

[1] = top dose 0.5 µM, screen: GDSC drug entry 1032
[2] = top dose 10 µM, screen: GDSC drug entry 1377, top dose inferred

Cell Line | AUC (PF-562271) | IC50 (PF-562271) [nM] | AUC (Afatinib; [1]) | IC50 (Afatinib; [1]) [nM] | AUC (Vinblastine) | IC50 (Vinblastine) [nM] | AUC (SNX-2112) | IC50 (SNX-2112) [nM] | AUC (XMD13-2) | IC50 (XMD13-2) [nM] | AUC (Afatinib; [2]) | IC50 (Afatinib; [2]) [nM]
MY-M12 (leukaemia, suspension) | 0.962 | > 2560 | 0.981 | > 500 | 0.632 | 15.2 | 0.249 | 27.3 | 0.458 | 484 | – | –
MZ1-PC (pancreas, adherent) | 0.792 | 1480 | 0.979 | > 500 | 0.671 | 21.1 | 0.412 | 86.8 | 0.884 | > 10200 | 0.871 | > 10000
MZ2-MEL (melanoma, adherent) | 0.899 | > 2560 | 0.983 | > 500 | 0.562 | 9.49 | 0.414 | 89.4 | 0.889 | > 10200 | 0.93 | > 10000
Mewo (melanoma, adherent) | 0.984 | > 2560 | 0.974 | > 500 | 0.569 | 10.1 | 0.961 | > 2560 | 0.962 | > 10200 | 0.951 | > 10000
Mo-T (hairy cell leukaemia, suspension) | 0.986 | > 2560 | 0.987 | > 500 | 0.362 | 2.58 | 0.257 | 31.7 | 0.885 | > 10200 | 0.948 | > 10000
NALM-6 (B-cell leukaemia, suspension) | 0.853 | 1510 | 0.99 | > 500 | 0.369 | 2.9 | 0.171 | 20.4 | 0.815 | 4510 | 0.968 | > 10000
NAMALWA (Burkitt lymphoma, suspension) | 0.963 | > 2560 | 0.991 | > 500 | 0.49 | 5.91 | 0.194 | 24.2 | 0.874 | 7320 | 0.988 | > 10000
NB5 (neuroblastoma, adherent) | 0.965 | > 2560 | 0.851 | 391 | 0.644 | – | 0.885 | > 2560 | 0.958 | > 10200 | 0.858 | 8420
NB6 (neuroblastoma, adherent) | 0.977 | > 2560 | 0.983 | > 500 | 0.785 | 53.6 | 0.858 | > 2560 | 0.867 | > 10200 | – | –
NB10 (neuroblastoma, adherent) | 0.967 | > 2560 | 0.976 | > 500 | 0.54 | 8.03 | 0.59 | 281 | 0.92 | > 10200 | 0.959 | > 10000
NB12 (neuroblastoma, adherent) | 0.966 | > 2560 | 0.972 | > 500 | 0.748 | 42.2 | 0.836 | > 2560 | 0.942 | > 10200 | 0.466 | 489
NB13 (neuroblastoma, adherent) | 0.958 | > 2560 | 0.99 | > 500 | 0.418 | 3.83 | 0.299 | 47 | 0.901 | > 10200 | 0.99 | > 10000
NB14 (neuroblastoma, adherent) | 0.89 | > 2560 | 0.989 | > 500 | 0.508 | 6.56 | 0.497 | 158 | 0.959 | > 10200 | 0.975 | > 10000
NB69 (neuroblastoma, adherent) | 0.861 | 1780 | 0.873 | 389 | 0.508 | 6.55 | 0.639 | 370 | 0.909 | > 10200 | – | –
NB(TU)1-10 (neuroblastoma, adherent) | 0.897 | 2430 | 0.993 | > 500 | 0.962 | > 100 | 0.405 | 91.1 | 0.992 | > 10200 | 0.993 | > 10000
NB-4 (acute myeloid leukaemia, suspension) | 0.841 | 1330 | 0.991 | > 500 | 0.212 | 1.1 | 0.132 | 15.5 | 0.538 | 795 | 0.978 | > 10000
NCI-H28 (mesothelioma, adherent) | 0.902 | > 2560 | 0.903 | > 500 | 0.661 | 20.3 | 0.924 | > 2560 | 0.968 | > 10200 | 0.819 | 8140
NCI-H64 (small cell lung carcinoma, suspension) | 0.975 | > 2560 | 0.996 | > 500 | 0.859 | 51.1 | 0.322 | 59 | 0.827 | 4220 | – | –
NCI-H69 (small cell lung carcinoma, suspension) | 0.92 | > 2560 | 0.984 | > 500 | 0.685 | 21.9 | 0.981 | > 2560 | 0.846 | 8780 | 0.952 | > 10000
NCI-H82 (small cell lung carcinoma, suspension) | 0.938 | > 2560 | 0.982 | > 500 | 0.423 | 3.91 | 0.852 | 1810 | 0.944 | > 10200 | 0.987 | > 10000
NCI-H187 (small cell lung carcinoma, suspension) | 0.976 | > 2560 | 0.988 | > 500 | 0.804 | 55.2 | 0.659 | 460 | 0.932 | > 10200 | 0.985 | > 10000
